# Test results from PMC4336329 (PLoS ONE, 2015).
# The campaign covered roughly 310,000 compounds. About 14,000 (4.5%) showed an effect of 50% or more. Effects have a minus sign here. Some of the results follow.
# Biological target: human ether-à-go-go-related gene (hERG) potassium channel (human, UniProt Q12809)
# Assay: primary screen, population patch clamp on CHO cells stably expressing hERG
# 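Note: peak tail current of the secondary pulse compared with the same well before compound.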
# Sequence of human ether-à-go-go-related gene (hERG) potassium channel (Q12809 whole entry, looked up): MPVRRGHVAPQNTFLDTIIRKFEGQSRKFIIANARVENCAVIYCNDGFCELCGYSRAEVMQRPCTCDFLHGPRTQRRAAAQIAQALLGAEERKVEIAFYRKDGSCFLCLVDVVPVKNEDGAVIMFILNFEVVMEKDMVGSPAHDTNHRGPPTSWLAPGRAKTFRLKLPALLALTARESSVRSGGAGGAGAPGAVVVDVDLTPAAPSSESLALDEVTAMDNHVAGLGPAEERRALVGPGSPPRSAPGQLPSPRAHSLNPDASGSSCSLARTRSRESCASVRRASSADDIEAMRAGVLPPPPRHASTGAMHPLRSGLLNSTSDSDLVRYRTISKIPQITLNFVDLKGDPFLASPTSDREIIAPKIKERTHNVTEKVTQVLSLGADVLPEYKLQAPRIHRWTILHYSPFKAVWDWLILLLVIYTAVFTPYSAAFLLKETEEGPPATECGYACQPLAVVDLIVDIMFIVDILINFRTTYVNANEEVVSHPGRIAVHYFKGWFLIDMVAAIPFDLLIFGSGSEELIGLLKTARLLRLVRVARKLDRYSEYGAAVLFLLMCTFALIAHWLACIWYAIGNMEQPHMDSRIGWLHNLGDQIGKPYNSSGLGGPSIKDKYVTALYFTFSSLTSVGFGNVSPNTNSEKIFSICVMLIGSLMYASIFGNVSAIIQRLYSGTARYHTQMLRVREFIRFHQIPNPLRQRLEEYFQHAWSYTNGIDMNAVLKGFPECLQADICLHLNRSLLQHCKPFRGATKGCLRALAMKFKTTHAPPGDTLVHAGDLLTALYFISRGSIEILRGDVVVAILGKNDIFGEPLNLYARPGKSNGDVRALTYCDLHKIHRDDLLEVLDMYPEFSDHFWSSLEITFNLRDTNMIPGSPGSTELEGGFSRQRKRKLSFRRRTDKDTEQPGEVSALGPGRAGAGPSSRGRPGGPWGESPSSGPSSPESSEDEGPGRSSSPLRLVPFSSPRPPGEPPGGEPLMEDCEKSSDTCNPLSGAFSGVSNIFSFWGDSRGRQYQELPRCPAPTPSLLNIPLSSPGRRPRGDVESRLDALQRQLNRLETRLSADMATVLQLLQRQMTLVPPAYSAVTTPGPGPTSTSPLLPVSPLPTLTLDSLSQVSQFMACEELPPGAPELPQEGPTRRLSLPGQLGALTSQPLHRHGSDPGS
row,Structure (SMILES),"hERG current change (%, negative = inhibition) at 10uM [%]"
1,O=C(Cc1ccccc1[N+](=O)[O-])Nc1ccc(S(=O)(=O)N2CCCC2)cc1,-4.46
2,C=CCc1ccc(OCCn2cncn2)c(OC)c1,7.93
3,O=C(NNS(=O)(=O)c1ccccc1)c1cccc(F)c1,17.2
4,C/C(CC(=O)Nc1ccc(C)cc1C)=N\NC(=O)C(C)C,15.6
5,S=C(Nc1ccccc1Cl)NC1CCC(NC(=S)Nc2ccccc2Cl)CC1 (stereo not drawn),20.9
6,O=C(Nc1ccccc1)C1=C[C@@H](c2ccc(Br)cc2)C[C@@H](OCc2ccc(CO)cc2)O1,8.08
7,COc1cc(OC)cc(C(=O)N2CCN=C2SCc2cccnc2)c1,-21.6
8,Nc1nc(-c2ccccc2)cn1N,14.4
9,CCOc1ccc(-n2c(Cc3cc(=O)[nH]c(=O)[nH]3)nnc2SC(C)C(=O)OC)cc1 (stereo not drawn),6.08
10,CN(C)C=O.O=[N+]([O-])c1cccc(COc2ncnc3cc([N+](=O)[O-])ccc23)c1,-36.5
11,CN(C)C(CNc1ncnc2sccc12)c1ccccc1 (stereo not drawn),-2.38
12,Cc1cc(CNC(=O)CC2C(=O)NCCN2CC(c2ccccc2)c2ccccc2)on1 (stereo not drawn),11.9
13,COc1ccc(NC(=O)C2C3C=CC4(O3)C2C(=O)N(CCN2CCCCC2)C4C(=O)NC2CCCC(C)C2C)cc1 (stereo not drawn),16.9
14,CCC(CC)C(=O)c1c[nH]c(C(=O)NCc2ccco2)c1,-10.2
15,CN1/C(=C/C=C(/C#N)C(N)=O)C(C)(C)c2ccccc21,-11
16,COC(=O)c1cc2c(C(F)(F)F)nn(C)c2s1,9.18
17,Cc1ccc(NC(=O)COCC(=O)Nc2ccc(C)cc2)cc1,-7.9
18,O=C(/C=C/c1ccc([N+](=O)[O-])cc1)NCC1CCCO1 (stereo not drawn),-12.8
19,C/C(=N/NC(=O)CN1CCN(S(=O)(=O)c2ccc(C)cc2)CC1)c1ccco1,-53.7
20,COc1ccc(N(C(=O)Cc2cccs2)C(C(=O)NC2CCCC2)c2ccncc2)cc1 (stereo not drawn),10.2
21,Cc1ccccc1OCC(=O)Nc1ccc(C(=O)Nc2ccccc2C(=O)O)cc1,6.65
22,C=Cn1ccnc1P(=S)(c1nccn1C=C)C1CCCCC1,-33.7

row,Structure (SMILES),"hERG current change (%, negative = inhibition) at 10uM [%]"
1,COc1ccc(C2CC(c3ccccc3)=NN2C(=O)COC(=O)c2ccc(S(C)(=O)=O)cc2)cc1 (stereo not drawn),-0.642
2,Cc1sc2ncnc(N3CCC(C(=O)Nc4ccc(S(N)(=O)=O)cc4)CC3)c2c1C,-20.2
3,Cc1cccc(NS(=O)(=O)c2ccc3[nH]c(=O)cc(C(=O)O)c3c2)c1,13.6
4,CC(=O)Oc1cc(O)c2c(=O)c(OC(C)=O)c(-c3ccc(OC(C)=O)c(OC(C)=O)c3)oc2c1,8.17
5,CCCn1nnnc1COc1ccc(C(N)=O)cc1,14.7
6,CC(NC(=S)Nc1ccc(S(N)(=O)=O)cc1)c1ccc2c(c1)OCO2 (stereo not drawn),5.78
7,c1ccc(-c2nnc3sc(-c4ccncc4)nn23)cc1,-18.1
8,CCN(CC(=O)Nc1ccc(NC(C)=O)cc1)C(=O)/C=C/c1c(C)nn(-c2ccc(F)cc2)c1C,9.95
9,Cc1ccc(C2Nc3ccccc3C(=O)N2Cc2ccco2)cc1 (stereo not drawn),-32.5
10,C/C(=N\Nc1cc(Cl)nc(C)n1)c1ccccc1,-3.88
11,COC(=O)COc1ccc2c(c1)O/C(=C\c1ccco1)C2=O,14.2
12,CCOc1ccc2nnc(-c3ccc(Br)cc3)n2n1,-5.3
13,N#Cc1c(C(F)(F)F)cc(-c2ccc(F)cc2)nc1SCC(=O)O,6.06
14,COc1ccc(CCNC(=O)CCC(=O)N2CCN(S(=O)(=O)c3ccc(Cl)cc3)CC2)cc1OC,-11
15,Cc1ccc(OCC(=O)c2cc(C)n(C3CC3)c2C)c([N+](=O)[O-])n1,-6.03
16,O=C(Cc1c[nH]c2ccccc12)NCc1ccc(Cl)cc1Cl,-0.423
17,CCOC(=O)C1(CC2CC2)CCN(C(=O)c2cccnc2C)CC1,9.7
18,CCOc1ccc(N2C(=O)CN(CC(=O)OC)C2=S)cc1,0.546
19,C=C(C)CSc1nc2nc(C)c(Br)cc2[nH]1,-8.11
20,O=C(OCc1cc2ccccc2[nH]c1=O)c1ccco1,10.8
21,CCC(=O)NCCN1CCN(C(=O)CC)CC1,3.27
22,OCCNCCOc1ccccc1F,11.1

row,Structure (SMILES),"hERG current change (%, negative = inhibition) at 10uM [%]"
1,CCOc1ccccc1NC(=O)C1(S(=O)(=O)c2ccc(Cl)cc2)CC1,2.96
2,CC(=O)Nc1cccc(-c2csc(N)n2)c1,18.1
3,CCOc1cc(C(=O)Nc2ccncc2)cc(OCC)c1OCC,0.149
4,Cc1ccccc1NC(=O)c1ccc(F)c(S(=O)(=O)NCC2CCCO2)c1 (stereo not drawn),14.2
5,CCC(=O)c1ccc(OCC(O)CN(CCc2ccccc2)Cc2ccccc2)cc1.Cl (stereo not drawn),5.17
6,Cc1nc2ncnn2c(N2CCCC(C(=O)Nc3ccccc3Br)C2)c1C (stereo not drawn),-60.2
7,COc1ccc(NC(=O)C2CCC(CNS(=O)(=O)c3cccs3)CC2)cc1OC (stereo not drawn),-12
8,O=C(NCCCCCNC(=O)c1cccnc1)c1cccnc1,-0.498
9,O=C(NC1CCN(Cc2ccccc2)CC1)C1CCN(S(=O)(=O)c2ccccc2)CC1,-28.8
10,COc1cc(/C=C(\C#N)C(=O)NCC2CCCO2)c([N+](=O)[O-])cc1OC (stereo not drawn),1.12
11,CCOC(=O)c1c(Cc2ccc(Cl)cc2)c[nH]c1C,12.3
12,CCOC(=O)Cc1csc(NC(=O)CSc2nnnn2-c2ccc(C)cc2C)n1,11.1
13,CCOc1ccc(OCC(=O)N(C)c2c(N)n(Cc3ccccc3)c(=O)[nH]c2=O)cc1,5.49
14,CCOC(=O)c1cc(C(O)(C(=O)OC)C(F)(F)F)c(/N=C/N(C)C)o1 (stereo not drawn),-6.94
15,COc1ccc(CCNC(=O)C2CC(c3ccc(C(F)(F)F)cc3)=NO2)cc1 (stereo not drawn),-6.74
16,CCOCC(=O)Nc1ccccc1C(=O)OCC,-9.13
17,O=C(CC(=O)Nc1ccccn1)Nc1ccccn1,5.13
18,Cn1c(CCNC(=O)c2cc(COc3ccc(F)c(F)c3)on2)nc2ccccc21,-13.8
19,COC(=O)C1=C(C(=O)OC)[C@@H]2N(C)c3ccccc3[C@@]23C[C@@H](C(=O)OC)N(C(=O)c2cccs2)C3=N1,-10.1
20,COc1ccc(-c2cc(=O)c3c(OC)c(OC)c(OC)cc3o2)cc1,-16.5
21,CCOc1ccc(S(=O)(=O)N(CC)CC(=O)NC2CC2)cc1,-7.6
22,CCOC(=O)C1(C)NC(c2ccc(N(C)C)cc2)C2C(=O)N(CC)C(=O)C21 (stereo not drawn),2.31

row,Structure (SMILES),"hERG current change (%, negative = inhibition) at 10uM [%]"
1,Cc1ccc(C(=O)N2CCN=C2SCc2ccc([N+](=O)[O-])cc2)cc1C,2.84
2,CCN1C(=O)/C(=C2/C=Cc3ccccc3N2C)OC1=S,9.46
3,CCCCN(C)Cc1c(O)ccc2c(=O)c(-c3ccccc3OC)coc12,9.27
4,Brc1cnc2nc(SCc3nc4ccccc4[nH]3)[nH]c2c1,11.3
5,NC(=O)c1ccc(NC(=O)CCCN2C(=O)NC3(CCCC3)C2=O)cc1,-4.73
6,CCOC(=O)c1ccc(NC(=O)CCOc2ccccc2)cc1,-0.298
7,C/C(=N\NC(=O)c1cccc([N+](=O)[O-])c1)c1cccc(NC(=O)C2CC2)c1,3.52
8,CC(C)CC1Nc2ncnc(N3CCCCC3)c2N(Cc2ccc(Br)cc2)C1=O.O=C(O)C(F)(F)F (stereo not drawn),-3.39
9,Cc1ccc(C2CC(=O)C(C=NCCN3CCN(C(=O)Cc4ccccc4)CC3)=C(O)C2)cc1 (stereo not drawn),-42.8
10,COc1ccc(-c2nc3ccc(C(=O)NCC(OC)OC)cc3nc2-c2ccc(OC)c(OC)c2)cc1OC,-2.59
11,CNC(=O)c1ccc(NC(=O)c2ccc3c(=O)n4c(nc3c2)CCC4)cc1,15.5
12,O=C(Nc1ccon1)c1ccccc1F,-3.99
13,O=C(NCCCN1CCCC1=O)c1c(O)nc2sccn2c1=O,5.04
14,CSc1ccccc1N=CC1=C(O)CC(C)(C)CC1=O,-20.7
15,CC1CCN(C(=O)C(C)c2ccc([N+](=O)[O-])cc2)CC1 (stereo not drawn),-3.41
16,CCOC(=O)c1c(C)c(C(=O)N2CCN(c3ccc(F)cc3)CC2)c(C)n1C,-39.2
17,CC(C)c1cc(C(=O)Nc2ccc3c(c2)OCO3)no1,-2.19
18,Cc1ccc(C(=O)N/C(=C\C=C\c2ccccc2)C(=O)NCc2ccco2)cc1,-50.3
19,O=C1CC(N2CCN(c3ccccc3)CC2)C(=O)N1c1ccc2c(c1)OCCO2 (stereo not drawn),10.6
20,CCOc1ccc2nc(NC(=O)C3CSC4(C)CCC(=O)N34)sc2c1 (stereo not drawn),-15.7
21,COc1ccc(C(=O)N/N=C(\N)c2cc3ccccc3oc2=O)cc1,24.2
